Measured values: PMC12192704
These are yes or no findings as the source states them, for the method shown. In cells and extracts the contact can be indirect. Some entries that bind do so weakly or less than the wild type. For some assays here: Tags and fused reporters may be left off the sequences shown.

The chains behind the UniProt entries cited, without tags or fusion partners. Where a name states a change or a piece, a line headed by the entry shows the natural chain unless it says otherwise.
UniProt Q9NUM4: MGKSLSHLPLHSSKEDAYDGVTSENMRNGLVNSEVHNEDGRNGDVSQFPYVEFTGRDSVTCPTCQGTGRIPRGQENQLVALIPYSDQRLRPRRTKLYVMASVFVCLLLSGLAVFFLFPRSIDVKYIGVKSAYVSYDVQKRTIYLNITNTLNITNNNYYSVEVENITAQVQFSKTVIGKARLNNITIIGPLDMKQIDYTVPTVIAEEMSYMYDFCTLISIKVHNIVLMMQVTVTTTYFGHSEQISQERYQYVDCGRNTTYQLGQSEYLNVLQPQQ

Assays:
GFP-TMEM106B (human) = GFP-TMEM106B (human) (UniProt Q9NUM4); test: co-IP; co-transfected cells (HEK293 named for Fig. 6B, C); anti-Flag or anti-GFP precipitation, control IgG or vector without bait; lysis buffer 20 mM Tris pH 7.5, 150 mM NaCl, 1 mM EDTA, 1% Triton X-100
GFP-NHE1 (human) = GFP-NHE1 (human) (UniProt P19634); test: as above
Flag-TMEM106B (human) = Flag-TMEM106B (human) (UniProt Q9NUM4); test: as above
[1] = target: GST-NHE1 fusion protein (human) (UniProt P19634); test: pull-down; purified GST-NHE1 as bait; GFP-TMEM106B, its fragments and mutants as prey, Western blot; only the target purified
Flag-NHE1 (human) = Flag-NHE1 (human) (UniProt P19634); test: co-IP; co-transfected cells (HEK293 named for Fig. 6B, C); anti-Flag or anti-GFP precipitation, control IgG or vector without bait; lysis buffer 20 mM Tris pH 7.5, 150 mM NaCl, 1 mM EDTA, 1% Triton X-100
[2] = target: GST-TMEM106B fusion protein (human) (UniProt Q9NUM4); test: pull-down; purified GST-TMEM106B as bait; fragments and mutants of GFP-NHE1 as prey, Western blot; only the target purified

**Q.** Flag-NHE1 (from UniProt P19634-1 1-815) was tested. Which binding (GFP-TMEM106B (human)) did it give?
**A.** The binding was “binds”.

**Q.** How did the binding (GFP-NHE1 (human)) turn out when “Flag-TMEM106B (from UniProt Q9NUM4 1-274)” was run?
**A.** Its binding is “binds”.

**Q.** With GFP-NHE1 (from UniProt P19634-1 1-815) as the molecule, how does the binding (Flag-TMEM106B (human)) read?
**A.** The binding was “binds”.

**Q.** With “GFP-TMEM106B (from UniProt Q9NUM4 1-274)” as the molecule, how does the binding [1] read?
**A.** The binding was “binds”.

**Q.** And the binding (Flag-NHE1 (human))?
**A.** The binding was “binds”.

**Q.** “GFP-TMEM106B aa1-117 (from UniProt Q9NUM4 1-117) (domain or fragment)” was tested. Which binding [1] did it give?
**A.** Its binding is “binds”.

**Q.** “GFP-TMEM106B aa81-117 (from UniProt Q9NUM4 81-117) (domain or fragment)” was tested. Which binding [1] did it give?
**A.** Its binding is “binds”.

**Q.** “GFP-TMEM106B aa96-117 (from UniProt Q9NUM4 96-117) (domain or fragment)” was tested. Which binding [1] did it give?
**A.** Its binding is “binds”.

**Q.** “GFP-TMEM106B aa118-274 (from UniProt Q9NUM4 118-274) (domain or fragment)” was tested. Which binding [1] did it give?
**A.** Its binding is “no binding”.

**Q.** For PLVDLLAVKKKQETKRSINEEIHTQFLDHLLTGIEDICGHYGHHHWKDKL (domain or fragment, UniProt P19634-1 501-550) [GFP-NHE1 aa501-550], which binding [2] is on record?
**A.** The binding was “binds”.

**Q.** How did the binding [2] turn out when LTGIEDICGH (domain or fragment, UniProt P19634-1 531-540) [GFP-NHE1 aa531-540] was run?
**A.** The binding was “binds”.
